Data: paper PMC6758638
Read-outs that look alike come from different tables or passages of the source. No constants are given. Whether binding was seen depends on the method and setting. Binding seen in cells or lysates may run through a third protein. Some results given as binding are weak or reduced against the parent protein; the word gives no strength. For some of these results: Where a sequence is shown, tags or fusion partners need not be part of it.

Chains of the proteins cited; added tags and fusions are not shown.
UniProt P18272: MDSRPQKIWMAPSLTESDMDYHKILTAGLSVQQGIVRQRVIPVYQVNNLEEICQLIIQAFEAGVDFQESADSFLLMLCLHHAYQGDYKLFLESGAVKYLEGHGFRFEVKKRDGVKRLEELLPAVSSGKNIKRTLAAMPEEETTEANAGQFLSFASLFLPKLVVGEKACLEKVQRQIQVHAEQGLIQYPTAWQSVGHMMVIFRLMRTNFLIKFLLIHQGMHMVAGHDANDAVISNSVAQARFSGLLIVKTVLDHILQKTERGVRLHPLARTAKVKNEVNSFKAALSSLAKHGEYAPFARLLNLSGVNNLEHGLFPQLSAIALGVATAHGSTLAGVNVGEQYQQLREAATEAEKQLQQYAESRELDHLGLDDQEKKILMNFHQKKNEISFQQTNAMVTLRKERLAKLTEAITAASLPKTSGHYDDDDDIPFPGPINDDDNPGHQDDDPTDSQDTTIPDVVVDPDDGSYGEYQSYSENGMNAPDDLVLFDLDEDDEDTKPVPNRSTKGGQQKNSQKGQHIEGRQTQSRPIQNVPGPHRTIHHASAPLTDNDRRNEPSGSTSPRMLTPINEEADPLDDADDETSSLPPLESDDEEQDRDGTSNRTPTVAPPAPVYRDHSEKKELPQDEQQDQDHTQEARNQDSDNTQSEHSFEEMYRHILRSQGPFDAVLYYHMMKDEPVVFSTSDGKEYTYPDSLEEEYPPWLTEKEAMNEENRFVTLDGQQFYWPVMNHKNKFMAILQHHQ
UniProt Q8JPY1: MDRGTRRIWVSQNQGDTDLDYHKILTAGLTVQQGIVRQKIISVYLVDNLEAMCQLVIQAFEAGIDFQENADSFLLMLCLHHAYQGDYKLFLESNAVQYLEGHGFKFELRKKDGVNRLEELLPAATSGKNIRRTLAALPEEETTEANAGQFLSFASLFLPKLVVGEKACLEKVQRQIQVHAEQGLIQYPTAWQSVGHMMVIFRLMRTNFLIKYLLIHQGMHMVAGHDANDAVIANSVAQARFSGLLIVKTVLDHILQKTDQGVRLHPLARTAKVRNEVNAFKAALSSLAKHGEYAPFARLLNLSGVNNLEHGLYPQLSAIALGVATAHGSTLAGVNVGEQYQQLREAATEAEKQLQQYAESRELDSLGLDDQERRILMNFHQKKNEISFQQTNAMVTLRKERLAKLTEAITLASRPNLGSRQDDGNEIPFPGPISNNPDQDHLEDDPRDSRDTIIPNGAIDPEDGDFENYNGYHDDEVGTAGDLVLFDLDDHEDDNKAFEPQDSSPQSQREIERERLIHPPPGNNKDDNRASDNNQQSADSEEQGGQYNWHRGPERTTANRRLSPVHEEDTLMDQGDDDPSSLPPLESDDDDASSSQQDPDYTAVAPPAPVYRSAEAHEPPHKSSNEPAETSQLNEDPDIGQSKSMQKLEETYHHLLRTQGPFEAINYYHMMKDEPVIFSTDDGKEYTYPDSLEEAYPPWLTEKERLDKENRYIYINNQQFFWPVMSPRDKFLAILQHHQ
UniProt Q05323: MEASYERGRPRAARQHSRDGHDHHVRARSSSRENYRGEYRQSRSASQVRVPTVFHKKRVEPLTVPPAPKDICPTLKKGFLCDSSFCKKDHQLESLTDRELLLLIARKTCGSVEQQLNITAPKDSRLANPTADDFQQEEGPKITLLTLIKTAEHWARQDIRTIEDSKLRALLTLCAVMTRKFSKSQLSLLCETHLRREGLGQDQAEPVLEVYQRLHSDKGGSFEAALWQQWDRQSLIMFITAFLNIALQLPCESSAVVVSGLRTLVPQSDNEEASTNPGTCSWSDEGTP
UniProt Q05127: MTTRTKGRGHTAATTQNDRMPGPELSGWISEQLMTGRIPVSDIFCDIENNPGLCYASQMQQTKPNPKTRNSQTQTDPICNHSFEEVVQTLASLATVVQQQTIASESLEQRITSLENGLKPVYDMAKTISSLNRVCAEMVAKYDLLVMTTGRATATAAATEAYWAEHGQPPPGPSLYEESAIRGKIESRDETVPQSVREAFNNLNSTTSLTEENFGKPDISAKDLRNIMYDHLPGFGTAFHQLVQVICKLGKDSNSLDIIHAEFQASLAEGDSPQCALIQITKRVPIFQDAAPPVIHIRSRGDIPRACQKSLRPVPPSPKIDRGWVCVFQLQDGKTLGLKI
UniProt Q15172: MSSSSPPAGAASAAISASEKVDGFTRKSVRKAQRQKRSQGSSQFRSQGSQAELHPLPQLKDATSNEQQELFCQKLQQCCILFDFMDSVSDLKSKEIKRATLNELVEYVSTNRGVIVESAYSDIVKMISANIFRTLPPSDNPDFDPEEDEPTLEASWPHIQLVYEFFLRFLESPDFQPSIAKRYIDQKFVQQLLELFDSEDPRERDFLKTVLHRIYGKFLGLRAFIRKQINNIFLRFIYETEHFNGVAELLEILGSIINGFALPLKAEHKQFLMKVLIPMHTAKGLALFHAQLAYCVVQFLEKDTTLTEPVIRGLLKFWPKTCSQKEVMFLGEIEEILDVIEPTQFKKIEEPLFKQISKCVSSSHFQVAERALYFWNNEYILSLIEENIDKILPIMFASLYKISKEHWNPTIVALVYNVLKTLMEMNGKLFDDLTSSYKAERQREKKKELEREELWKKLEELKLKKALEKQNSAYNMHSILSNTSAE

Tests used:
Assay in all cases: co-IP
[1] = target: T1, N-terminal HA-tagged wild-type SMYD3 (human) (UniProt Q9H7B4)
T1 sequence: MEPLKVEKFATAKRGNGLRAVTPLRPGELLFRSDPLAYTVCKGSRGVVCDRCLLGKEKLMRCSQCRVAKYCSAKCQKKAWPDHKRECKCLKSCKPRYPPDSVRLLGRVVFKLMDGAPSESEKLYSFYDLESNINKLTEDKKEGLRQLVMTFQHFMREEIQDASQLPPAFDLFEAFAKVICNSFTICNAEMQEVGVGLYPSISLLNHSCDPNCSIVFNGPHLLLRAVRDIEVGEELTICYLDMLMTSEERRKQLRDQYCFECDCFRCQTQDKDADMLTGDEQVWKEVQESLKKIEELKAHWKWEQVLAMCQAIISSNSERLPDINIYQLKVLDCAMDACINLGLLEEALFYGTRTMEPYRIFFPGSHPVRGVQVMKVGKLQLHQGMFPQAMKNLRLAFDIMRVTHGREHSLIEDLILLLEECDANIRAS

[2] = target: C-terminal HA-tagged Zaire ebolavirus (strain Mayinga) nucleoprotein (Zaire ebolavirus (strain Mayinga)) (UniProt P18272)
[3] = target: C-terminal HA-tagged Zaire ebolavirus (strain Mayinga) nucleoprotein (Zaire ebolavirus (strain Mayinga)) (UniProt P18272); remark: listed apart in the source
[4] = target: wild-type Reston virus NP (Reston ebolavirus (strain Pennsylvania)) (UniProt Q8JPY1)
[5] = target: C-terminal HA-tagged Zaire ebolavirus VP30 (Zaire ebolavirus (strain Mayinga)) (UniProt Q05323)
[6] = target: HA-tagged Zaire ebolavirus VP35 (Zaire ebolavirus (strain Mayinga)) (UniProt Q05127)

Molecule: C-terminal FLAG-tagged Zaire ebolavirus (strain Mayinga) nucleoprotein (from UniProt P18272 1-739)
- binding [1]: binds

Molecule: C-terminal FLAG-tagged Zaire ebolavirus VP30 (from UniProt Q05323 1-288)
- binding [2]: binds

Molecule: FLAG-tagged B56α (from UniProt Q15172 1-486)
- binding [2]: binds

B1: SET and MYND domain-containing protein 3, endogenous (protein, UniProt Q9H7B4 1-428)
chain: T1 sequence
- binding [3]: binds
- binding [4]: binds
- binding [5]: no binding
- binding [6]: no binding
